Measurements: PubChem BioAssay AID588453 (National Center for Advancing Translational Sciences (NCATS), 2011)
Where “and” joins values, the source holds several entries; their conditions need not be identical. Equal entries are not always repeated. Among all 390,000 compounds or so, about 4,000 (1%) were called active. The shares of active, inactive and inconclusive entries below differ from those in the screen. The call rests on the fitted dose curve; in most records, active means well fitted inhibition curve with a large enough effect; inconclusive means small, poorly fitted or top-dose-only effect; inactive means no such curve, though single readings can be large or run the other way. Where the call is inconclusive, the potency comes from a doubtful curve fit.

Target: Thioredoxin reductase 1, cytoplasmic (Rattus norvegicus) (UniProt O89049)
Sequence of UniProt O89049 (O89049 whole entry, looked up): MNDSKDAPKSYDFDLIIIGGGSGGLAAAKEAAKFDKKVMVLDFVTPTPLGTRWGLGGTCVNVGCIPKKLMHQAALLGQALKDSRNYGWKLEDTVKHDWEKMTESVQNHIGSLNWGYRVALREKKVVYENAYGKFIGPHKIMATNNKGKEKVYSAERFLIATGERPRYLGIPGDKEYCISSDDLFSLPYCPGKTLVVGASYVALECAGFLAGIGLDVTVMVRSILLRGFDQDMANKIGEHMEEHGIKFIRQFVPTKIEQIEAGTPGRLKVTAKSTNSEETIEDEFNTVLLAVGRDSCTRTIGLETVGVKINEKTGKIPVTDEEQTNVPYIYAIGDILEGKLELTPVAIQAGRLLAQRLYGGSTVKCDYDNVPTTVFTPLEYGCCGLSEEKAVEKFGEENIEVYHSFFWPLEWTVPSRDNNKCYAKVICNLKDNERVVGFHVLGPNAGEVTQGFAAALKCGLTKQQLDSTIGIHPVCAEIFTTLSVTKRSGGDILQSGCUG
Assay: qHTS Assay for Inhibitors of Mammalian Selenoprotein Thioredoxin Reductase 1 (TrxR1): qHTS; further: nearly all actives have a fitted effect of over 65% in size
Conditions: recombinant rTrxR1, NADPH fluorescence consumption, selenite substrate; series mostly up to 114 µM; activity change, negative = inhibition: at the top concentration
How it was run: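 Rat TrxR1 (90 nM in the dispensed reagent) was pre-reduced with 400 uM NADPH for 5 min at room temperature, then incubated with compound for 15 min. After 400 uM selenite was added, NADPH fluorescence (Ex 340/Em 450 nm) was followed for 8 min.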
On the % scale 0 is the no-effect control and ±100 the full control effect; potency means the concentration at half of the fitted maximal effect; tags describe the fitted curve by direction and shape.

Row | Structure (SMILES) | activity change, negative = inhibition | Potency
1 | NS(=O)(=O)c1cc(C(=O)OCC(=O)Nc2ccc3[nH]c(=O)[nH]c3c2)ccc1Cl | inactive: 9.19% | 
2 | CC1=C/C(=C\c2ccc3c(c2)OCO3)C(=O)S1 |  | inconclusive: 70.8 µM [inhibitor, partial curve]
3 | CN1CCC2(CC1)N=C(c1ccc(F)cc1)C(=S)N2C(=O)c1ccccc1 |  | active: 5.01 µM
4 | O=C(Oc1ccc([N+](=O)[O-])cc1)c1cccnc1 |  | inconclusive: 56.2 µM [inhibitor, partial curve, poor fit]
5 | CC(C)CCNC(=O)C12CN(Cc3ccccc3)CC1C(c1ccc([N+](=O)[O-])cc1)=NO2 (centres undefined) | inactive: 0.226% | 
6 | Cc1ccc(S(=O)(=O)c2nc(-c3ccccc3Cl)oc2N(C)C)cc1 |  | inconclusive: 50.1 µM [inhibitor, partial curve, poor fit]
7 | COc1ccc(C2Nc3ccccc3C(=O)N2Cc2ccccc2)cc1COc1ccccc1F (centres undefined) | inactive: 33.2% | 
8 | ON=C1c2ccccc2-c2ccc(F)cc21 | inactive: 5.69% [at 11.4 µM] | 
9 | CCCCOC(=O)c1ccc(NS(=O)(=O)c2c(C)nc3scc(C)n3c2=O)cc1 | inactive: 12.6% | 
10 | CC1=CC(c2ccc(Cl)cc2)n2nc(N3C(=O)CCC3=O)nc2N1 (centres undefined) |  | inconclusive: 28.2 µM [inhibitor, partial curve, poor fit]
11 | c1ccc(CNc2nc3ccccc3c3nc(-c4ccccc4)nn23)cc1 | inactive: 35.6% | 
12 | COc1ccccc1CNC(=O)COC(=O)c1cc(C)nc2ccccc12 | inactive: 6.1% | 
13 | O=C(Cn1cnc2c(oc3ccccc32)c1=O)NCc1ccco1 |  | inconclusive: 22.4 µM [inhibitor, single point]
14 | N#Cc1c(NC(=S)NC(=O)c2ccccc2)sc2c1CCCC2 |  | inconclusive: 2.51 µM [inhibitor, full curve]
15 | O=C(CN(c1ccc(Br)cc1)S(=O)(=O)c1ccc(Cl)c([N+](=O)[O-])c1)NCC1CCCO1 (centres undefined) |  | inconclusive: 17.8 µM [inhibitor, full curve]
16 | COc1ccc(S(=O)(=O)n2oc(=O)cc2-c2ccccc2)cc1OC |  | inconclusive: 28.2 µM [inhibitor, single point]
17 | CC(=O)Nc1ccc(Nc2ncnc3c2c(-c2ccccc2)cn3-c2ccccc2)cc1 | inactive: 12.8% [at 57.1 µM] | 
18 | COC(=O)c1sc(NC(=S)NNC(=O)c2c(Br)c(C)nn2C)c(C(=O)OC)c1C |  | inconclusive: 50.1 µM [inhibitor, partial curve]
19 | CCOc1cc(CNc2ccc(N(C)C)cc2)cc(Br)c1OCC(=O)NC(C)(C)C |  | inconclusive: 50.1 µM [inhibitor, partial curve, poor fit]
20 | O=C(NC(=S)Nc1ccccc1)c1cccs1 |  | active: 50.1 µM
21 | Cc1cccc(N2CCN(S(=O)(=O)c3ccc4c(c3)NC(=O)CO4)CC2)c1C | inactive: -10.7% | 
22 | Cc1ccc(C)c(/C(O)=C2\C(=O)C(=O)N(CCCN3CCOCC3)C2c2cccnc2)c1 (centres undefined) |  | inconclusive: 56.2 µM [inhibitor, partial curve, poor fit]
23 | COc1ccccc1-n1cnnc1SCC(=O)Nc1cc(C(C)(C)C)nn1-c1ccccc1 | inactive: -6.7% | 

Row | Structure (SMILES) | activity change, negative = inhibition | Potency
24 | Cn1nc([N+](=O)[O-])c(C(C#N)c2nc3ccccc3n2C)c(Cl)c1=O (centres undefined) |  | inconclusive: 3.98 µM [inhibitor, partial curve]
25 | O=C(Nc1ccc2[nH]c(=S)sc2c1)c1ccccc1 | inactive: -36.8% | 
26 | CCCCCC(=O)Nc1nc(C)c(-c2csc(Nc3cc(Cl)ccc3OC)n2)s1 | inactive: -13.5% | 
27 | CC1(c2nnc(Cc3ccccc3)o2)CC(c2ccc(C#N)cc2)=NO1 (centres undefined) |  | active: 15.8 µM
28 | COc1ccc(C2CC(c3ccccc3)Nc3ncnn32)cc1 (centres undefined) |  | inconclusive: 31.6 µM [inhibitor, single point]
29 | CCOc1ccc(/C=C/C2=CC(C)(C)NC(=S)N2)cc1 |  | inconclusive: 20 µM [inhibitor, single point]
30 | C[C@@H]1CN([C@H](C)CO)C(=O)Cc2cc(NC(=O)CCC(F)(F)F)ccc2O[C@@H]1CN(C)C(=O)NC1CCCCC1 |  | inconclusive: 89.1 µM [inhibitor, partial curve, poor fit]
31 | COc1ccccc1-c1cc(C(F)(F)F)nc(S(=O)(=O)CCCC(=O)N2CCCCC2C)n1 (centres undefined) | inactive: -75.4% [at 57.1 µM] | 
32 | Cc1cc(C)n2nc(SCC(=O)c3cc(C)n(-c4cc(C)on4)c3C)nc2n1 |  | inconclusive: 12.6 µM [inhibitor, full curve]
33 | CN(C)c1ccc(/C=C/C=C2/C=Cc3ccccc32)cc1 | inactive: -34.1% | 
34 | N#Cc1ccc(/C=C/C(=O)c2ccco2)cc1 |  | inconclusive: 50.1 µM [inhibitor, partial curve, poor fit]
35 | C=CS(=O)(=O)c1sc(Cl)c(N2CCOCC2)c1[N+](=O)[O-] |  | active: 0.316 µM
36 | Cc1[nH]c(=S)c(C#N)c(-c2ccccc2)c1C(=O)Nc1ccccc1 |  | inconclusive: 17.8 µM [inhibitor, partial curve]
37 | CCn1cc[n+](C)c1P(c1ccccc1)c1ccccc1 |  | inconclusive: 70.8 µM [inhibitor, single point]
38 | Cc1ccc(CCNC(=O)CCc2cn(Cc3ccccc3C)c3ccccc23)cc1 | inactive: 3.86% | 
39 | CCCCNC(=O)CN1C(=O)NC(Cc2ccccc2)(Cc2ccccc2)C1=O | inactive: -6.76% | 
40 | CC(=O)n1cc([C@@H]2C=C(C(=O)N3CCN(Cc4ccccc4)CC3)O[C@H](OCc3ccc(CO)cc3)C2)c2ccccc21 |  | inconclusive: 100 µM [inhibitor, single point]
41 | COC(CNC(=O)c1ccc(Cn2c(=S)[nH]c3cc4c(cc3c2=O)OCO4)cc1)OC |  | inconclusive: 39.8 µM [inhibitor, partial curve]
42 | N#Cc1ccc(NC(=S)NC(=O)C2CCCCC2)cc1 |  | inconclusive: 63.1 µM [inhibitor, partial curve, poor fit]
43 | COc1ccc(CC(=O)Nc2ccc3nc(Nc4cccc(Cl)c4)cc(C)c3c2)cc1OC | inactive: 15% | 
44 | COc1ccccc1-c1nnc(N)s1 |  | inconclusive: 63.1 µM [inhibitor, partial curve, poor fit]
45 | Cc1ccc(C(=O)C2=C(O)C(=O)N(Cc3cccnc3)C2c2ccc(Cl)cc2)o1 (centres undefined) |  | inconclusive: 79.4 µM [inhibitor, single point]
46 | CC1(C)CC(=O)c2c(S(C)(=O)=O)sc(Br)c2C1 |  | inconclusive: 35.5 µM [inhibitor, full curve]

Row | Structure (SMILES) | activity change, negative = inhibition | Potency
47 | CCN(CC)CCCn1c(=S)[nH]c2ccccc2c1=O | inactive: -1.63% | 
48 | CCOc1ccc(NC(=O)CN2CCCC2c2cccs2)cc1S(=O)(=O)N1CCCCC1 (centres undefined) |  | inconclusive: 89.1 µM [inhibitor, single point]
49 | COc1ccc(-c2ccc(C3C4C=CCC(C)C4C(=O)N3Cc3ccccc3)c(F)c2)cc1OC (centres undefined) | inactive: 40.8% [at 57.1 µM] | 
50 | COc1cc(CNc2ccc3c(c2)CCC3)cc(OC)c1O |  | active: 0.398 µM
51 | Cc1oc(-c2ccc3c(c2)OCCO3)cc1C(=O)NCC(=O)O |  | inconclusive: 14.1 µM [inhibitor, partial curve]
52 | CCNC(=O)Cn1cc(C#N)c2ccccc21 |  | inconclusive: 39.8 µM [inhibitor, single point]
53 | Cc1cc(C(=O)N/N=C/c2ccc(O)c([N+](=O)[O-])c2)c(C)n1-c1ccc(F)cc1 |  | inconclusive: 56.2 µM [inhibitor, partial curve]
54 | C=CCN=c1scc(-c2ccco2)n1/N=C/c1ccc(O)c(O)c1O |  | inconclusive: 17.8 µM [inhibitor, full curve]
55 | COC(=O)c1sc(-c2ccccc2)cc1NC(=O)c1cccc(F)c1 | inactive: 17.7% | 
56 | O=c1oc2cc(O)ccc2c2c1CCCC2 |  | inconclusive: 70.8 µM [inhibitor, single point]
57 | O=C(/C=C/c1ccc(Br)cc1)c1ccc(NC(=O)c2ccco2)cc1 |  | inconclusive: 79.4 µM [inhibitor, single point] and inconclusive: 79.4 µM [inhibitor, partial curve, poor fit]
58 | CCC(CC)=NNc1ccc(S(N)(=O)=O)cc1[N+](=O)[O-] | inactive: 25.6% [at 57.1 µM] | 
59 | O=C(C1=C(O)C(=O)N(c2ncccn2)C1c1ccc(Cl)c(Cl)c1)c1ccco1 (centres undefined) |  | inconclusive: 5.62 µM [inhibitor, full curve]
60 | Cc1cccc(C)c1OCC(=O)NNC(=O)CCNC(=O)c1ccco1 |  | inconclusive: 2 µM [inhibitor, partial curve]
61 | O=c1cc(CN2CCN(S(=O)(=O)c3ccc4c(c3)OCCO4)CC2)c2ccc(O)cc2o1 |  | inconclusive: 89.1 µM [inhibitor, single point]
62 | Cc1ccc(OCC(=O)Nc2ccc(O)c(-c3nc4cc(C)c(C)cc4o3)c2)cc1 |  | inconclusive: 79.4 µM [inhibitor, single point]
63 | CCOC(=O)c1cc(C#N)c(SCC(=O)OC)[nH]c1=O |  | inconclusive: 56.2 µM [inhibitor, partial curve, poor fit]
64 | CCc1ccccc1NC(=O)CN(C)C(=O)Cn1ncc(Cl)c(Cl)c1=O |  | inconclusive: 79.4 µM [inhibitor, partial curve]
65 | CCOP(=O)(Cc1ccc(C(C)(C)CC(C)=O)o1)OCC |  | inconclusive: 89.1 µM [inhibitor, partial curve]
66 | O=C(NC(=S)N(CCc1ccccc1)CCc1ccccc1)c1ccco1 |  | inconclusive: 39.8 µM [inhibitor, partial curve]
67 | O=C(CCl)c1ccc2c(c1)CCN2C(=O)C1CCCCC1 |  | inconclusive: 70.8 µM [inhibitor, single point]
68 | O=C(CCl)Nc1cn(-c2ccccc2)nc1-c1ccccc1 |  | active: 12.6 µM
69 | CCc1nn(CC(=O)NC2CC2)c(=O)c2cc3c(OC)cccc3n12 | inactive: 25.8% | 
